Assay results from the supplement of paper PMC5499739.
Whole data set: some 16,000 sequences, median “Z-score” near -0.37, cut for the highest 2% near 3.1. This is one part of the list.

test system: RBM10 RRM1-ZnF-RRM2 (GST-tagged construct); assay: RNAcompete 7-mer binding Z-score; higher = stronger binding preference
Method: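 RNAcompete: 20 pmol GST-tagged RBM10 RNA-binding constructs were incubated with a designed RNA pool of about 241,000 sequences up to 41 nt (1.5 nmol) on glutathione beads for 30 min at 4 °C and washed. Bound RNAs were identified by microarray hybridisation. Each RNA 7-mer is scored by a one-sided Z-score of its enrichment, computed over probes that contain the 7-mer within longer pool sequences.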

Row | Sequence | RNAcompete 7-mer binding Z-score
1 | GUGUAGA | 1.55
2 | CAGAGUG | 1.09
3 | GAGGACG | 1.69
4 | UUGAUUA | -0.442
5 | UGGAGUA | 1.66
6 | UGUGGGA | 2.96
7 | GUAGACC | -0.0925
8 | UUGCAUU | -0.701
9 | CAUGUUA | -0.49
10 | UCGGGGG | 2.42
11 | UGCUCGG | -0.424
12 | CUGGGUC | 0.275
13 | ACUCACU | -0.795
14 | CGAGUAU | -0.391
15 | CUGUGCC | -0.843
16 | AUGUGCG | 0.417
17 | GUAGUUU | -0.191
18 | GAUCACU | -0.701
19 | UCCAGAC | -0.555
20 | GACCAAA | -0.00148
21 | CCAGCCA | -0.748
22 | GGGGAGU | 2.86
23 | CUAUUGA | -0.595

Row | Sequence | RNAcompete 7-mer binding Z-score
24 | UGGUCAG | 0.694
25 | ACUCGUC | -0.752
26 | GUUUUGG | 0.716
27 | AGCAAGU | -0.0343
28 | CUCGUCA | -0.617
29 | UUAAGUU | -0.42
30 | GCUUACA | -0.632
31 | ACAAUAC | -0.446
32 | CCCUGCC | -0.846
33 | UAAACUG | -0.209
34 | GACUGUC | -0.85
35 | AACUGGG | 1.77
36 | GAACAUG | 0.461
37 | GAACAUU | -0.384
38 | AGGGGAG | 2.52
39 | AGAUACA | -0.278
40 | AAGGCCG | 0.534
41 | ACGUGGA | 1.82
42 | CAUCCGG | -0.158
43 | GUUAUAG | 0.159
44 | AUUGGAC | 0.927
45 | CAGCGUU | -0.435
46 | GUUCCCA | -0.398

Row | Sequence | RNAcompete 7-mer binding Z-score
47 | AGGGUUG | 3.34
48 | GACGAUG | 0.68
49 | GUACAAC | 0.33
50 | AAAAAUU | -0.435
51 | GGCAGGU | 1.66
52 | ACCCGGU | -0.5
53 | UGACCGG | 0.137
54 | GCCUAAU | -0.697
55 | CGUGAAG | 0.261
56 | AGGGGAC | 1.97
57 | UAUGAUU | -0.26
58 | CCGUUAU | -0.683
59 | AGCAUUC | -0.672
60 | CAGCCCC | -0.475
61 | UCCCUCG | -0.719
62 | GGACUCC | 0.126
63 | GUUCACG | -0.355
64 | AGAUGGG | 2.71
65 | CUCAGUU | -0.828
66 | UGGGGUA | 3.36
67 | GGCUCCU | -0.679
68 | GUAACUA | -0.118
69 | AACGAUC | -0.46

Row | Sequence | RNAcompete 7-mer binding Z-score
70 | CGCGAUU | -0.701
71 | AUCGCUA | -0.763
72 | AUCCCCU | -0.712
73 | UCUGUGU | -0.599
74 | CAAGACC | -0.723
75 | CAUUAUA | -0.446
76 | CACGGAU | 0.366
77 | CCGACAC | -0.555
78 | UCUCAGA | -0.559
79 | UACAUCA | -0.347
80 | AAGUUCC | -0.701
81 | CAUUGGC | -0.388
82 | UGCUGCC | -0.719
83 | AACAUUC | -0.632
84 | GACCUCA | -0.854
85 | UCUAUCU | -0.592
86 | AUAUUCC | -0.748
87 | AUAAUUC | -0.628
88 | UUCGAAC | -0.53
89 | CAGAGAU | 0.359
90 | CAUGCUU | -0.861
91 | AUUCGGC | -0.275
92 | GCGCUUU | -0.785

Row | Sequence | RNAcompete 7-mer binding Z-score
93 | GGACACG | 0.989
94 | GUCAGAA | 0.243
95 | CAUGAGA | 0.024
96 | CGGGGUG | 3.36
97 | GCAGGUA | 1.67
98 | AGAUUGA | 0.381
99 | UGGUCAU | 0.17
100 | UGUCUAG | -0.577
101 | AGGCUCU | -0.69
102 | GAAAUGA | 0.705
103 | GUGGCUC | 0.133
104 | UCAAAGG | 0.691
105 | AUUGACC | -0.573
106 | CCAUAAU | -0.81
107 | UCAGCAA | -0.337
108 | AGUGGCC | 0.173
109 | ACUACAU | -0.628
110 | UUGACGC | -0.522
111 | GCUGGGA | 1.69
112 | AUCGCCA | -0.759
113 | GUUAAGG | 1.99
114 | GUGGUGA | 1.84
115 | CACACGC | -0.307

Row | Sequence | RNAcompete 7-mer binding Z-score
116 | GAUGGGG | 4
117 | AUUGCAU | -0.395
118 | UUCACAU | -0.679
119 | AUUCGUC | -0.643
120 | GGGACCG | 1.19
121 | ACUGGGU | 1.96
122 | AAAGGCC | 0.279
123 | UCAACGA | -0.322
124 | CAGGCAA | 1
125 | AUAAUAU | -0.49
126 | GCUCUAG | -0.701
127 | UCAGCGC | -0.515
128 | GGUUACU | 0.141
129 | UCUGUGC | -0.825
130 | ACCGCUA | -0.872
131 | GGCGUUG | 0.534
132 | AGUGAUC | -0.00877
133 | CAGUGGC | 0.865
134 | GGUUAAU | 1.14
135 | AUGAAUC | -0.184
136 | GAUGUAA | 0.217
137 | UUAGCAA | -0.129
138 | UCUUACC | -0.934

Row | Sequence | RNAcompete 7-mer binding Z-score
139 | AUUCGAC | -0.708
140 | ACAUGCA | -0.103
141 | UAGACAU | -0.198
142 | CUGUACA | -0.537
143 | GACUCAG | -0.413
144 | GGCACGU | 0.683
145 | UAGAUGC | -0.267
146 | UUCUAUG | -0.755
147 | GCAGGCG | 1.54
148 | GACUACU | -0.77
149 | GGCGAAG | 2.29
150 | AGCUCAC | -0.846
151 | GUUACUU | -0.515
152 | AAUCGGU | 0.377
153 | CAUCAGA | -0.351
154 | UCGGGUU | 0.916
155 | UUGUAAC | -0.668
156 | GGGGAGG | 3.33
157 | GUCUAUC | -0.486
158 | UAGGAUC | 0.618
159 | AAGUAUG | 0.607
160 | AGAUUUC | -0.559
161 | GGGGACC | 1.51

Row | Sequence | RNAcompete 7-mer binding Z-score
162 | UUACGCU | -0.486
163 | AUCUUUC | -0.846
164 | AGUAACC | -0.337
165 | UCAGUCA | -0.493
166 | GAGCCAA | -0.249
167 | CACACGA | -0.559
168 | AACAUGG | 1.32
169 | UAUGAUC | -0.69
170 | CUGGAUC | -0.333
171 | GGUGGAU | 2.46
172 | CGGGCCA | 0.159
173 | ACCAUCU | -0.919
174 | GACAAAC | -0.347
175 | AAACAAA | -0.0488
176 | CAUGACA | -0.551
177 | CACAUCC | -0.664
178 | UCCGCUA | -0.683
179 | UUAUCGA | -0.34
180 | AAAGAUG | 0.599
181 | AAUCUUC | -0.748
182 | GAUCUCG | -0.679
183 | GGGUGGA | 4.54
184 | GAAUUGG | 2.4
